# Experimental data from PubChem BioAssay AID624417 (National Center for Advancing Translational Sciences (NCATS), 2012).
# The campaign covered roughly 410,000 compounds. About 6,400 (1.6%) were called active. Inconclusive means that the source gave no clear call. Such entries were picked first, then a sample of the others. The call rests on the fitted dose curve; in most records, active means well fitted inhibition curve with a large enough effect; inconclusive means small, poorly fitted or top-dose-only effect; inactive means no such curve, though single readings can be large or run the other way. No potency is given beside an inconclusive call; the fits are too rough.
# Target: Glucagon-like peptide 1 receptor (Homo sapiens) (UniProt P43220)
# Experiment: qHTS of GLP-1 Receptor Inverse Agonists (Inhibition Mode); further: nearly all actives have a fitted effect of over 55% in size
# Details: HEK293 GLP-1R CRE-luciferase, luminescence, 24 h, GLP-1R form is constitutively active; activity change, negative = inhibition: at 38.3 µM (top of the series) unless noted
# Outline: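 Cells are plated, allowed 12 hours at 37 deg C, then treated with compounds for 24 hr before luciferase detection reagent is added and luminescence is read after 12 min at room temperature. The HEK293 line carries constitutively active GLP-1R with a cAMP-responsive reporter.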
# On the % scale 0 is the no-effect control and ±100 the full control effect; potency means the concentration at half of the fitted maximal effect; tags describe the fitted curve by direction and shape.
# UniProt P43220, sequence (P43220 whole entry, looked up): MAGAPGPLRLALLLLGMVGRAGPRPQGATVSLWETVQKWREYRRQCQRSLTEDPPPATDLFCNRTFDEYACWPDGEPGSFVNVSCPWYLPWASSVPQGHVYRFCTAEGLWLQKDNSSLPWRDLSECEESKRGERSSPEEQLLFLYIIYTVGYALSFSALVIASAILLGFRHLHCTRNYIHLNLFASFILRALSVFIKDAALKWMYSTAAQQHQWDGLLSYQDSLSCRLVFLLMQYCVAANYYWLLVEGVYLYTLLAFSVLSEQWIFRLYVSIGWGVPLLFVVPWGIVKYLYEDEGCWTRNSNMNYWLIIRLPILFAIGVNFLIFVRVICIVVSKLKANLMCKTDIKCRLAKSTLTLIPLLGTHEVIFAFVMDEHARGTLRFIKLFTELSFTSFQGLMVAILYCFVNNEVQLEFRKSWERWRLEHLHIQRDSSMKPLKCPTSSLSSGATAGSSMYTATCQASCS
SMILES,Potency,"activity change, negative = inhibition"
CCN(CC)c1ccc(C(=O)N2CCC(c3c[nH]c4ccccc34)(c3c[nH]c4ccccc34)CC2)cc1,"inconclusive [inhibitor, full curve]",
CC(C)n1nnnc1-c1cccc(Cl)c1,,inactive: 17.5%
CCOC(=O)C1(Cc2cccc(OC)c2)CCN(Cc2ccccc2OC)CC1,"inconclusive [inhibitor, single point]",
Cc1ccc(C(=O)N2CCc3ccccc32)cc1C,"inconclusive [inhibitor, single point]",
c1ccc2c(c1)-c1nc3ccccc3cc1C2N1CCCCC1 (centres undefined),"inconclusive [inhibitor, partial curve, poor fit]",
FC(F)(F)c1cccc(N2CCN(CC3CC=CCC3)CC2)c1 (centres undefined),"inconclusive [inhibitor, partial curve, poor fit]",
COc1ccc(-n2c(NCCN(C)C)nc3sc4c(c3c2=O)CCCCC4)cc1,"inconclusive [inhibitor, single point]",
Cc1ccc(C)c(C(O)c2ncc(-c3ccc4ccccc4c3)[nH]2)c1 (centres undefined),"inconclusive [inhibitor, partial curve, poor fit]",
CN1CCC(C)(C(=O)Nc2cccc(Oc3ccccc3)c2)C1 (centres undefined),"inconclusive [inhibitor, partial curve, poor fit]",
C=C1CCN([C@@H](Cc2ccccc2)C(=O)NCc2ccccc2)S(=O)(=O)c2ccccc21,"inconclusive [inhibitor, partial curve, poor fit]",
COc1ccc(C(c2nnnn2C2CCCC2)N2CCN(C/C=C/c3ccccc3)CC2)cc1 (centres undefined),"inconclusive [inhibitor, single point]",
COCCc1ncc(CN2CCCC(C(=O)Nc3cccc(-c4cccc(C)c4)c3)C2)cn1 (centres undefined),"inconclusive [inhibitor, partial curve, poor fit]",
Fc1cccc(NC(=S)NC2CCCCCCC2)c1,"inconclusive [inhibitor, partial curve, poor fit]",
Cn1c(-c2ccccc2)c(CCO)c2ccccc21,"inconclusive [inhibitor, single point]",
Cc1ccc(Nc2nc(N)nc(CN3CCN(Cc4ccc5c(c4)OCO5)CC3)n2)c(C)c1,"inconclusive [inhibitor, single point]",
CC1Cc2cc(S(=O)(=O)NCc3ccccc3Cl)ccc2N1C(=O)C1CCC1 (centres undefined),"inconclusive [inhibitor, single point]",
CCN(C(=O)c1cc2c(s1)-c1ccccc1OC2)c1cc(Cl)ccc1OC,"inconclusive [inhibitor, partial curve, poor fit]",
COc1ccc(C(=O)N(c2ccc(OC)cc2)S(=O)(=O)c2cccs2)cc1,"inconclusive [inhibitor, partial curve, poor fit]",
Cc1cccc(C(=O)N2CCC(=O)N(C(COCc3ccc(Cl)cc3)Cc3ccccc3)CC2)c1 (centres undefined),"inconclusive [inhibitor, partial curve, poor fit]",
CC1(C(=O)Nc2cccc3ccccc23)CCN1C(=O)C1(c2ccccc2)CCCC1 (centres undefined),"inconclusive [inhibitor, partial curve, poor fit]",

SMILES,Potency,"activity change, negative = inhibition"
CC(C)(C)NC(=O)N1CCC(CO)(Cc2ccccc2Cl)CC1,"inconclusive [inhibitor, partial curve, poor fit]",
N=c1c2c(ncn1Cc1ccco1)Oc1ccc3ccccc3c1C2c1ccccc1 (centres undefined),"inconclusive [inhibitor, full curve, poor fit]",
OC(COCC(F)(F)C(F)(F)C(F)(F)C(F)F)Cn1c2ccccc2c2ccccc21 (centres undefined),"inconclusive [inhibitor, partial curve, poor fit]",
CC(C)(C)NC(=O)N1CCn2cccc2C1c1ccccc1F (centres undefined),"inconclusive [inhibitor, single point]",
CCN(CC)S(=O)(=O)c1ccc2c(c1)N(CC(=O)N1CCN(c3ccccc3F)CC1)C(=O)CO2,,inactive: -15.9%
CN(C)c1ccc(C=Cc2ccnc3ccccc23)cc1N,"inconclusive [inhibitor, partial curve, poor fit]",
CN(C)CCCC(C)(O)C(Cc1ccccc1)c1ccccc1 (centres undefined),,inactive: 0%
CC(C)CN1CCC(=O)N([C@H](COc2ccccc2)c2ccccc2)CC1,"inconclusive [inhibitor, single point]",
CC1CN(c2nc3c(c(=O)n(Cc4ccc(Cl)c(Cl)c4)c(=O)n3C)n2C)CC(C)O1 (centres undefined),"inconclusive [inhibitor, single point]",
CCc1ccc(C(=O)c2cnc3ccc(OC)cc3c2N2CCN(CC)CC2)cc1,"inconclusive [inhibitor, single point]",
CC1CCCN(CCCOc2ccc(Br)cc2Cl)C1 (centres undefined),"inconclusive [inhibitor, partial curve, poor fit]",
CC(C)(C)c1ccc(C(=O)N2CCC(C(=O)c3ccccc3)CC2)cc1,"inconclusive [inhibitor, partial curve, poor fit]",
CC(C)n1c(=S)[nH]c2scc(-c3cccs3)c2c1=O,"inconclusive [inhibitor, single point]",
CCOC(=O)C1(Cc2ccccc2)CCCN(Cc2ccc(OCC)c(CO)c2)C1 (centres undefined),"inconclusive [inhibitor, partial curve, poor fit]",
O=C1C=CCC(/C=C/c2ccccc2)O1 (centres undefined),active: 2.51 µM,
Cc1cc(C(=O)N2CCc3c([nH]c4ccccc34)C2c2c(F)cccc2Cl)no1 (centres undefined),active: 10 µM,
Cn1c(N=Nc2ccccc2)nc2ccccc21,active: 4.47 µM,
Cc1ccc(C)c(NC(=O)COc2coc(CN3CCc4ccccc43)cc2=O)c1,"inconclusive [inhibitor, partial curve]",
COc1ccccc1-c1cc(C(=O)NC2CCN(C)CC2)c2ccc(Cl)c(C)c2n1,"inconclusive [inhibitor, full curve, poor fit]",
